From patent US20040223966A1 (Pfizer, published 2004) come the findings set out here.

The target in the assay is T1, biotinylated mature BMP-11 (human, UniProt O95390 299-407, biotinylated with EZ-link Sulfo-NHS-Biotin, in the same manner as GDF-8; sites not stated).
T1 construct: mature; Active mature BMP-11 dimer purified from a cell line expressing recombinant human BMP-11; also called biotinylated BMP-11; GDF-11
T1 sequence (looked up): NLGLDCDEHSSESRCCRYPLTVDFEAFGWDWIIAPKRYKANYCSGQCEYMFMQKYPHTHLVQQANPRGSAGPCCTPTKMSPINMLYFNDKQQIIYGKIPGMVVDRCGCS
Nature of the assay: ELISA on coated ActRIIB-Fc. The protocol:
Biotinylated mature BMP-11 was prepared from BMP-11 latent complex in the same manner as described above. Recombinant ActRIIB-Fc, prepared as described in Examples 3 and 4, was coated on 96-well flat-bottom assay plates (Costar, NY, Cat. No. 3590) at 1 μg/ml in 0.2 M sodium carbonate buffer (pH 10) overnight at 4° C. Plates were then blocked with 1 mg/ml bovine serum albumin and washed following standard ELISA protocol. 100 μl aliquots of biotinylated GDF-8 or BMP-11 at various concentrations were added to the blocked ELISA plate, incubated for 1 hr and washed. The amount of bound GDF-8 or BMP-11 was detected by Streptavidin-Horseradish peroxidase (SA-HRP, BD PharMingen, San Diego, Calif., Cat. No. 13047E) followed by the addition of TMB (KPL, Gaithersburg, Md., Cat. No. 50-76-04). Colorimetric measurements were done at […] in a Molecular Devices microplate reader.
In general terms: In an ELISA, binding on a coated surface is turned into a signal by an enzyme label.

B1: ActRIIB-Fc (Fc fusion)
chain: TSGRGEAETRECIYYNANWELERTNQSGLERCEGEQDKRLHCYASWRNSSGTIELVKKGCWLDDFNCYDRQECVATEENPQVYFCCCEGNFCNERFTHLPEAGGPEVTYEPPPTAPTGGRGDDDDKTRSR[… human IgG1 Fc with changes …]
notes: The leader is stated as aa 1-21; also called ActRIIB fusion polypeptide; recombinant ActRIIB-Fc
Turning to B1, the binding result is “binds”.
